# Assay results reported in the supplement of paper PMC4604168 (melanoma cell lines).
# This is one part of the list. Most values come without repeats; read them as rough.
# How the values were obtained:
# Assay in all cases: cell count relative to DMSO control; melanoma cells; higher = more viable cells
# Settings in all cases: library dose: low library concentration; 72 h
# WM115 = test system: WM115
# WM1716 = test system: WM1716
# WM1745 = test system: WM1745
# WM3526 = test system: WM3526
# WM3619 = test system: WM3619
# WM451Lu = test system: WM451Lu
# 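Note: cell number obtained by counting DAPI-stained nuclei in high-throughput microscope images with image analysis software, screen run in 1,536-well plates.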
Structure (SMILES),cell count (WM115),cell count (WM1716),cell count (WM1745),cell count (WM3526),cell count (WM3619),cell count (WM451Lu)
"OCc1c[nH]c2ccccc12 [Indole-3-carbinol] + Cn1cncc1[C@@](N)(c1ccc(Cl)cc1)c1ccc2c(c1)c(-c1cccc(Cl)c1)cc(=O)n2C [tipifarnib] (first compound 0.8 µM, partner dose 0.01 µM)",95.2%,72.4%,97.3%,96.8%,92.3%,98.9%
"COCC[n+]1c2c(n(Cc3cnccn3)c1C)C(=O)c1ccccc1C2=O + Cn1nnc2c(C(N)=O)ncn2c1=O [temozolomide] (first compound 0.0004 µM, partner dose 2 µM)",98%,82.6%,124%,80%,105%,59.7%
"COCC[n+]1c2c(n(Cc3cnccn3)c1C)C(=O)c1ccccc1C2=O + C[C@]1(c2nc3c(C(N)=O)cccc3[nH]2)CCCN1 [Veliparib] (first compound 0.0004 µM, partner dose 1.4 µM)",83.6%,75.9%,82.6%,93.3%,84.6%,72.4%
"Clc1ccc(Nc2nnc(Cc3ccncc3)c3ccccc23)cc1 [vatalanib] + CC(C)(C)c1cnc(CSc2cnc(NC(=O)C3CCNCC3)s2)o1 [SNS-032] (first compound 2 µM, partner dose 0.01 µM)",90.2%,76.7%,81.2%,91.3%,77.9%,99.3%
"C#Cc1cccc(Nc2ncnc3cc(OCCOC)c(OCCOC)cc23)c1 [erlotinib] + Cc1cc(N2CCOCC2)cc2[nH]c(-c3c(NC[C@@H](O)c4cccc(Cl)c4)cc[nH]c3=O)nc12 [BMS536924] (first compound 0.8 µM, partner dose 0.2 µM)",89.9%,105%,54.5%,66.5%,112%,108%
"OCc1c[nH]c2ccccc12 [Indole-3-carbinol] + Nc1cccc2c1CN(C1CCC(=O)NC1=O)C2=O [lenalidomide] (first compound 0.8 µM, partner dose 1 µM)",107%,95.5%,92.1%,102%,89.3%,103%
"C#Cc1cccc(Nc2ncnc3cc(OCCOC)c(OCCOC)cc23)c1 [erlotinib] + COCC[n+]1c2c(n(Cc3cnccn3)c1C)C(=O)c1ccccc1C2=O [YM155] (first compound 0.8 µM, partner dose 0.0004 µM)",89.6%,80%,77.5%,81.8%,83.2%,73.7%
"C#Cc1cccc(Nc2ncnc3cc(OCCOC)c(OCCOC)cc23)c1 [erlotinib] + C[C@]1(c2nc3c(C(N)=O)cccc3[nH]2)CCCN1 [Veliparib] (first compound 0.8 µM, partner dose 1.4 µM)",96.6%,95.4%,84.4%,102%,101%,89.9%
"O=C(CCCCCCC(=O)Nc1ccccc1)NO [vorinostat] + O=C(O)C(=O)Nc1sc2c(c1C(=O)O)CCNC2 [TCS401] (first compound 0.08 µM, partner dose 1.66667 µM)",97.3%,90.1%,100%,83.5%,92.7%,92.1%
"COCC[n+]1c2c(n(Cc3cnccn3)c1C)C(=O)c1ccccc1C2=O + O=S(=O)(c1ccccc1)N(CC(F)(F)F)c1ccc(C(O)(C(F)(F)F)C(F)(F)F)cc1 [T0901317] (first compound 0.0004 µM, partner dose 1.4 µM)",100%,89%,73.6%,101%,113%,86.3%
"Cn1c(Nc2ccc(C(F)(F)F)cc2)nc2cc(Oc3ccnc(-c4ncc(C(F)(F)F)[nH]4)c3)ccc21 + CCCCCCCCCCCC1=C(O)C(=O)C=C(O)C1=O [Embelin] (first compound 0.08 µM, partner dose 1.2 µM)",56.5%,91.9%,73.1%,53.3%,63.5%,94.9%
"OCc1c[nH]c2ccccc12 [Indole-3-carbinol] + CC1(C)NC(=O)N(c2ccc([N+](=O)[O-])c(C(F)(F)F)c2)C1=O [nilutamide] (first compound 0.8 µM, partner dose 1 µM)",105%,105%,77.1%,93.1%,92.8%,127%
"COCC[n+]1c2c(n(Cc3cnccn3)c1C)C(=O)c1ccccc1C2=O + N#Cc1c(O)c2c(-c3ccc(-c4ccccc4O)cc3)csc2[nH]c1=O [A769662] (first compound 0.0004 µM, partner dose 2 µM)",92.5%,96.8%,98.1%,91.3%,127%,100%
"Nc1cccc2c1CN(C1CCC(=O)NC1=O)C2=O (stereo not given) [lenalidomide] + O=S(=O)(c1ccccc1)N(CC(F)(F)F)c1ccc(C(O)(C(F)(F)F)C(F)(F)F)cc1 [T0901317] (first compound 1 µM, partner dose 1.4 µM)",81.1%,67.5%,81.2%,106%,89.5%,76.7%
"Cn1c(Nc2ccc(C(F)(F)F)cc2)nc2cc(Oc3ccnc(-c4ncc(C(F)(F)F)[nH]4)c3)ccc21 + CO[C@@H]1[C@H](N(C)C(=O)c2ccccc2)C[C@H]2O[C@]1(C)n1c3ccccc3c3c4c(c5c6ccccc6n2c5c31)C(=O)NC4 [Midostaurin] (first compound 0.08 µM, partner dose 0.08 µM)",42.1%,49.9%,43.7%,49.6%,78.7%,87.1%
"COCC[n+]1c2c(n(Cc3cnccn3)c1C)C(=O)c1ccccc1C2=O + CC(C)CCN1c2nc(Nc3cc(F)c(O)c(F)c3)ncc2N(C)C(=O)C1C [BID1870] (first compound 0.0004 µM, partner dose 0.2 µM)",107%,91.7%,81%,90.1%,105%,86.9%
"COCC[n+]1c2c(n(Cc3cnccn3)c1C)C(=O)c1ccccc1C2=O + Cc1cc([N+](=O)[O-])ccc1NS(=O)(=O)c1cc(Cl)ccc1Cl [FH535] (first compound 0.0004 µM, partner dose 1 µM)",69.5%,92.5%,93.8%,89%,101%,89.3%
"OCc1c[nH]c2ccccc12 [Indole-3-carbinol] + COCC[n+]1c2c(n(Cc3cnccn3)c1C)C(=O)c1ccccc1C2=O [YM155] (first compound 0.8 µM, partner dose 0.0004 µM)",113%,97.2%,98.5%,85.2%,97.5%,72.7%
"Clc1ccc(Nc2nnc(Cc3ccncc3)c3ccccc23)cc1 [vatalanib] + COc1ccc(-c2ccc3c(N4CCOCC4)nc(N4C[C@@H](C)O[C@@H](C)C4)nc3n2)cc1CO [KU0063794] (first compound 2 µM, partner dose 0.02 µM)",104%,107%,101%,105%,112%,86.6%
"Cn1c(Nc2ccc(C(F)(F)F)cc2)nc2cc(Oc3ccnc(-c4ncc(C(F)(F)F)[nH]4)c3)ccc21 + C=CCn1c(=O)c2cnc(Nc3ccc(N4CCN(C)CC4)cc3)nc2n1-c1cccc(C(C)(C)O)n1 [MK1775] (first compound 0.08 µM, partner dose 0.02 µM)",40.6%,63%,56.8%,40%,70.1%,82%
